# Assay results reported in PubChem BioAssay AID1631 (National Center for Advancing Translational Sciences (NCATS), 2009).
# The campaign covered roughly 260,000 compounds. About 890 (0.34%) were called active. This list was built around the results that the source calls inconclusive (neither active nor inactive); the mix of calls is not that of the screen. Calls follow the shape of the dose curve; as a rule, active = well fitted activation curve with a large enough effect; inconclusive = small, poorly fitted or top-dose-only effect; inactive = no such curve, though single readings can be large or run the other way. No potency is given beside an inconclusive call; the fits are too rough.
# Target: Pyruvate kinase PKM (Homo sapiens) (UniProt P14618)
# Assay: qHTS Assay for Activators of Human Muscle isoform 2 Pyruvate Kinase; also: nearly all actives have a fitted effect of over 55% in size
# Details: purified PKM2, Kinase-Glo ATP luminescence; Potency: activation; activation: at 57.5 µM (top of the series), 0% is enzyme alone, no compound
# Method in brief: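 Purified hPK-M2 (>95%) run at intermediate activity with 0.1 mM ADP and 0.5 mM PEP in 50 mM imidazole pH 7.2, KCl, MgCl2; 1 h room temperature. ATP formed read by Kinase-Glo luminescence; normalized to uninhibited and no-enzyme controls.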
# % is scaled to controls: 0 for no effect and ±100 for the full control effect; potency is read from the fitted curve at half-maximal effect; tags tell the direction and shape of the fitted curve.
# Sequence of UniProt P14618 (P14618 whole entry, looked up, canonical isoform): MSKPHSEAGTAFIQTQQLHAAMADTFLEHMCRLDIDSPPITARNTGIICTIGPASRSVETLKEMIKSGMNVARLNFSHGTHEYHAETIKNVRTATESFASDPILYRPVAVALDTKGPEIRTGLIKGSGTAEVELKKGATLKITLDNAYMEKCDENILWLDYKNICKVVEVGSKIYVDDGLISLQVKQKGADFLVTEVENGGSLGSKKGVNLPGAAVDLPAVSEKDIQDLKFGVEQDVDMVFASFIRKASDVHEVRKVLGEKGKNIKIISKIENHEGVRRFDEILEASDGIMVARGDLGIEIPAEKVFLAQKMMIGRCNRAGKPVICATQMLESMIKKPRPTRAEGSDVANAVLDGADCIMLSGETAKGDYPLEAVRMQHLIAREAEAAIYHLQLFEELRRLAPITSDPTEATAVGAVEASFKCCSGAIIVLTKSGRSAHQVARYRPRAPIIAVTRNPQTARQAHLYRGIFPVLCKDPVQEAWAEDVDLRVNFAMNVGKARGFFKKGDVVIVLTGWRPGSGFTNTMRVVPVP
SMILES,Potency,activation
O=C(Nc1ccccc1)N1CCCN(Cc2c(F)cccc2Cl)CC1,"inconclusive [rising, single point]",
CCOC(=O)c1[nH]c2ccccc2c1N=CN(CC)CC,"inconclusive [rising, partial curve]",
O=[N+]([O-])c1ccc(O)c(/C=N/Nc2ccccn2)c1,,inactive: -4.84%
O=C(/C=C1\C(=O)Nc2ccccc21)/C=C1\C(=O)Nc2ccccc21,active: 1.41 µM,
Nc1c(N)c2ccccc2oc1=O,,inactive: -14.5%
COc1cc(CNc2ccc(S(N)(=O)=O)cc2)ccc1OCC(=O)NC1CCCCC1,,inactive: -2.12%
O=C(COc1ccccc1C(=O)N/N=C\c1ccc(O)c(O)c1)N/N=C/c1ccc(O)c(O)c1,"inconclusive [rising, full curve]",
C=CCn1c(SCC(=O)Nc2nc(C)cs2)nnc1C(C)NC(=O)c1ccccc1Cl (stereo not drawn),"inconclusive [rising, single point]",
CCOc1ccccc1NC(=S)N1CCN(c2ccccc2F)CC1,"inconclusive [rising, full curve, poor fit]",
CN(C(=O)COC(=O)c1cc(-c2ccco2)nc2ccccc12)C1CCS(=O)(=O)C1 (stereo not drawn),"inconclusive [rising, partial curve, poor fit]",
O=C(CSc1nc2ccccc2c(=O)n1CCCN1CCOCC1)NC12CC3CC(CC(C3)C1)C2,,inactive: -10.7%
CCc1ccc2oc(=O)cc(CN(C)Cc3ccccc3)c2c1,,inactive: -5.31%
CCCCC[n+]1ccn(-c2nc3ccccc3nc2[N-]S(=O)(=O)c2ccccc2)c1,"inconclusive [rising, partial curve, poor fit]",
O=C(COc1ccc(-c2nnco2)cc1)N1CCN(S(=O)(=O)c2ccc3ccccc3c2)CC1,active: 7.08 µM,
CC(=O)c1cccc(NC(=O)CN(C2CCCCC2)S(C)(=O)=O)c1,"inconclusive [rising, single point]",
CCCn1c(=O)c(C(=O)NCc2ccc3c(c2)OCO3)c(O)c2ccccc21,,inactive: 1.98%
Fc1ccc(-c2nnc(-c3ccc(F)cc3)o2)cc1,,inactive: -7.7%
CCN=C1S/C(=C\c2cn(CC)c3ccccc23)C(=O)N1CC,,inactive: 4.8%
CN(C1=C(N2CCCCC2)C(=O)c2ccccc2C1=O)c1ccccc1,,inactive: -17.8%
CCN1C(=O)C(O)(CC(=O)C(C)(C)C)c2cc(Br)ccc21 (stereo not drawn),"inconclusive [rising, single point]",
O=[N+]([O-])c1ccccc1-c1ccc(C(=S)N2CCCCC2)o1,"inconclusive [rising, single point]",
CN(C)C(=O)Cn1c(SCC(=O)Nc2ccc3c(c2)OCO3)nc2ccccc21,,inactive: -5.55%
COc1ccc(C(=S)N2CCC(C(N)=O)CC2)cc1Br,"inconclusive [rising, single point]",
C=CCOC(=O)C1=C(C)NC(=O)NC1c1cc(Cl)cc(Cl)c1OC (stereo not drawn),"inconclusive [rising, single point]",

SMILES,Potency,activation
N/C(=N\S(=O)(=O)c1cc(C(F)(F)F)cc(C(F)(F)F)c1)c1cccs1,"inconclusive [rising, single point]",
CCC(C)c1ccc(NC(=O)c2[nH]c(C)c(C(C)=O)c2C)cc1 (stereo not drawn),"inconclusive [rising, single point]",
Cc1c(C(=O)NC(=S)Nc2ccc(NC(=O)c3cccs3)cc2)oc2ccccc12,"inconclusive [rising, single point]",
Cn1c(=O)c2c(nc(SCC(=O)Nc3ccccc3)n2C)n(C)c1=O,,inactive: 17%
COc1ccc(S(=O)(=O)N2CCC(Nc3ccccc3Cl)CC2)cc1,"inconclusive [rising, single point]",
Cc1oc2cc(O)ccc2c(=O)c1-c1nncn1-c1ccccc1,"inconclusive [rising, single point]",
Cc1ccc(C(=O)CCC(=O)N2CCN(C(=O)c3ccco3)CC2)cc1,"inconclusive [rising, single point]",
O=C(c1ccncc1)N1N=C(c2ccc(Cl)cc2)CC1c1ccccc1O (stereo not drawn),"inconclusive [rising, partial curve]",
O=S(=O)(c1ccccc1F)N1CCN(C(=S)NCc2ccccc2)CC1,"inconclusive [rising, single point]",
CCCC(=O)NC(c1ccc(N(C)C)cc1)c1ccc2cccnc2c1O (stereo not drawn),,inactive: -0.646%
FC(F)(F)c1cnc(COc2ccc(Cl)cc2Cl)c(Cl)c1,,inactive: -6.4%
Cc1ccc(-c2cc(C(=O)Nc3ccccn3)c3ccccc3n2)o1,"inconclusive [rising, full curve, poor fit]",
CN(Cc1nc2ccccc2n1C)c1ccccc1,,inactive: 6.18%
Cc1ccc(NC(=S)NCC23C=CC(O2)C2C(=O)N(c4ccc(C)cc4)C(=O)C23)cc1 (stereo not drawn),"inconclusive [rising, partial curve]",
COc1ccc(-c2nnc(SCC(=O)NCC3CCCO3)n2C)cc1 (stereo not drawn),"inconclusive [rising, single point]",
Cc1cc(-c2cc(-c3ccc(Cl)cc3)nc(N)c2C#N)co1,"inconclusive [rising, partial curve]",
Cc1cc(=O)oc2c1c(C(F)(F)F)nn2-c1ccccc1,,inactive: 1.25%
O=C(NC(=S)Nc1ccc(CN2CCOCC2)cc1)c1ccc(-c2ccc(Br)cc2)o1,"inconclusive [rising, single point]",
N#Cc1cnn(CC2CCCCC2)c1N,"inconclusive [rising, single point]",
O=c1c2c(nc3c(-c4cccc5ccccc45)c[nH]n13)CCC2,"inconclusive [rising, partial curve]",
O=C(Nc1cccc(C(=O)O)c1)/C(=C\c1ccco1)NC(=O)c1ccc(Br)o1,"inconclusive [rising, single point]",
Cn1nnc(NC(=O)c2ccco2)n1,,inactive: -11%
COc1cc(C(=S)N2CCOCC2)cc(OC)c1OC(=O)Cc1ccc(F)cc1,,inactive: 1.03%
COC(=O)CN1C(=O)S/C(=C/c2ccc(N3CCCCC3)o2)C1=O,"inconclusive [rising, partial curve]",
